The chains are these.
B1: OR4K15 (parent)
chain: GUUAACGGUCAUAGGCCAUGGAAACUAGGAGCACCAUUUCGCUGCCAGUGAAGAAAUGAACAAAGAAAAUCUGGGCCAGGCAGGCAUCAAAAGAAAUAGUCUUGCGCUCAACCAGAAAGUCUGUAAUCAUUUUAAGGGUA

Read counts are not given, so values of variants with three or more changes are uncertain.

Variants of B1 are the subject of the data set. As to the kind of experiment: self-cleavage, relative activity (ratio to wild type); higher = more cleavage; in vitro, sequencing; the parent is a self-cleaving ribozyme.
Take U26A A51U A55G G123A A129G: the self-cleavage is 0.34. C25U C88A U127C: the self-cleavage is 1.75.

For the variant A24G A36U A52G U102C, the self-cleavage stood at 1.16. Take A24G U37A U43C A55U A89C: the self-cleavage amounted to 1.51.

In the case of A24G G65A A98U U131C A135G, the self-cleavage was 1.33.

On to U26A U57C A69U, for which the self-cleavage stood at 1.2. Then A24G A30G A92G U120C, with 0.37; and A24G G29U U37A U38C U39C A89C, with 0.62; and A24G A86G A91G A129G, with 0.18.

As for A24G U49A A62G U108A A118U, the self-cleavage was 0. The same measure for A24G U43C A52G A64G A67G A140C: 1.12; for A24C A117U A126G: 0.66; for U26C A27C G123A: 1.54. As for C25U C113A A129G U133C, the self-cleavage came to 0. As for A24G A56G A67C U87C, the self-cleavage came to 0.95. Then A24G A52G A67G, with 1.16; and A24G A36G U108A U122C, with 0.01.

Turning to U26A U37C A118G, the self-cleavage stood at 1.63. Take A24G U72A G84U A114G: the self-cleavage was determined as 0.04. The same measure for A24G A27G A52G U57A: 0.58. Then A24G C32A U39A A52U, with 1.1. As for A23U U43A U72C, the self-cleavage came out at 0.2. For A24G A62U A110G U124A A126G, the self-cleavage is 0.16. Then A23G U97C U103C, with 0.09; and A24C A30G A63G, with 1.15; and A24G U49A A95G, with 0.18. The same measure for A24G A111G U132C: 0.02; for A24G U39C A56C A67G: 1.16; for U26C A27G U49C U102A U124A U139C: 0.55. Take A24G A51G A110G: the self-cleavage was determined as 0.06.

For the variant A24G A33G A47G A56G A95G, the self-cleavage came out at 0.88. The same measure for A23G U72G G106A: 0; for A24G A52G A91G: 1.18; for A23U A62G A68G: 0.98. Regarding A23U A82U A98U, the self-cleavage amounted to 0.5.

As for A23U A30G A86G, the self-cleavage was 0.21.

Turning to C25U A78G A135U, the self-cleavage was 0.24. Then A24U A82G U102C U124C, with 0.6; and A23U A69G A90G, with 1.12. As for A24C U49A A116G, the self-cleavage was 0.39. The same measure for A23U A90G G115A: 0.02; for A24U U38C A54G U87C: 1.07.

In the case of A24G A30G U49C A90U A98U, the self-cleavage stood at 0.62. The same measure for A23G U100C A111G: 0.04; for A24G A67G A90G U108C U139A: 0.03; for A24G A47G A54G: 1.55. The same measure for A24G U43C A55G A95G U130C: 1.75. Then A24G A92G A140G, with 0.83; and A24G A118U G123A, with 1.99; and A24C U39A A118G, with 1.75. Take C25U A47G A114G: the self-cleavage was 0.15.

For A24G A86G U124A, the self-cleavage was found to be 0.67. Turning to U26C A27U A118U, the self-cleavage stood at 0.97.

As to A24G G44A A51G G137A, the self-cleavage worked out at 0.85. Then C25A A33G A78G A92G A118G, with 0.06. Then A24G A60U A116U, with 0.43; and U26A A82U U100A, with 0.04.

Regarding A23U A78U U103C, the self-cleavage was 0.17. Then A24G A27G A126G, with 0.94. The same measure for A24G A36G C61A A67G C109U: 0.48; for A24U A68C U103C G119U: 0.99; for U26A A78U U97C A116G: 0.03.

Turning to A24G A56G U70C, the self-cleavage is 0.55. Then A24G A51G A91G A118G U122C, with 0.03.

In the case of A24G A66G C85U U120C, the self-cleavage stood at 0.97.

As to A23U U38C A111G, the self-cleavage was found to be 0.05.

In the case of U26A U108A A117G, the self-cleavage worked out at 0.01. Then A24G A56G U103C A129C, with 0.25; and A24G U39C A51U U87C A118G, with 1.11. Consider U26C A27G U37C A63G U87C A126G, for which the self-cleavage turned out to be 2.43.

For the variant A24G U49A U122C, the self-cleavage was 0.54. Consider A24G A52G G53U, for which the self-cleavage turned out to be 1.09. Take A24U A118G U133C: the self-cleavage worked out at 1.23. The same measure for A23G U87C A95G U120C: 0.3; for A24G A126G U132C: 1.4.

In the case of A24G U39A C71U, the self-cleavage amounted to 0.68. As for A24C A67G U72G A111G, the self-cleavage was 0. The same measure for A24U A47U C81U A126G: 0.18. Regarding A24G A30U U100C A117G, the self-cleavage amounted to 2.03. Then A24G A47G A69G, with 0.98; and A24U U43C A67G U133A, with 2.63; and A23U A69G U122C, with 0.57.

For A24G A27G A110G, the self-cleavage amounted to 0.19. Take A23U A82U U97C: the self-cleavage worked out at 0.1. Then A23U A52G U57A, with 1.46; and A24U A51G A118G, with 0.69. The same measure for A24C G84A U108C: 0; for A24G A27G A86G A95G: 1.38. The same measure for A24U A91G U100C: 2.51; for A24G A47G C76U: 0.2.

Regarding C25U U39C A51G, the self-cleavage amounted to 1.95. Consider A24G A47U A95G, for which the self-cleavage is 1.07. Then U26A U102C A135G, with 1.72; and A24G A60U A78G A114G U130C, with 0.04; and A23U U49A A55U, with 0.44. Regarding A24U A118G U132C A140C, the self-cleavage was 1.04.

A24U A30U A51G A60G: the self-cleavage was found to be 1.47. Then A24G A30U A51G A82U, with 0.11.

For the variant A24G A63G A92G, the self-cleavage was 1.18. The same measure for A24C A64G A78U A86U A110G: 0.09; for A24G A59G A62G A78G A94G U108G U127C: 0.02; for A24C A55G A62U A96U U122C U130C: 0.06. The same measure for A23U U57C A92G: 0.86. A24U A62G A89G: the self-cleavage amounted to 1.3. The same measure for A24G A117G U127A: 1.33. Then A24G A89U A111G, with 0; and A24G A95G G104A U122A, with 0.01. The same measure for A23U A56G A118G: 1; for A24G A56G U87C A92G U97G: 0.69; for U26C A27G A47G A95G: 1.18. With U26A A64G U108C, the self-cleavage was 0.01. Then A24C U38C U97A, with 1.72; and A23U G28A A78U A117G A126G, with 0.55; and A24G U87C U122C U130C, with 0.79. The same measure for U26A U38C U102C: 2.01. The same measure for A23U U49C U130A: 1.06; for A24C A67U A91G A94G: 1.33; for A24G A27G U43A A95G U100C A110G A111G: 0.01.

As to U26A A67U A95G, the self-cleavage is 1.81. Then A24G A51G A114U A118G, with 0.04; and A24C U43C A60G, with 0.94; and A24G A51G A92G U122C U130C, with 1.2. Then A24G A86G U87C, with 0.92.

A23U U49C A59U C105U: the self-cleavage is 0.08.

For the variant A24G U43A A116G, the self-cleavage is 1.26.

For A24G A55G A94U U108C, the self-cleavage worked out at 0.02.

Regarding A23U A62G U87C A116G U124A, the self-cleavage worked out at 0.27. Then A23U A27G A33C A47G A60G A66G A89G U120C, with 0.43; and A23U U37C G80U A134U, with 0.23.

As for A24G A59G A66G U108A, the self-cleavage came to 0.03. Then A24G A59U A82C U122C A134G, with 0.1; and A24G A30G U72C, with 0.15; and A24G U26A U43C, with 1.18. Then A24U A90G A110U, with 0.41; and A23U A30C A54G, with 1.39; and A24G A30U U100C, with 1.32. The same measure for A24G C113A U130C: 0.

Regarding C25U A27U A52G U100C U120C, the self-cleavage was determined as 1.25. Then A24G A78U A129G U131G A140G, with 0.1; and A24G A33U A55G A82G U122C, with 0.24. The same measure for A24G A51G A56G A64G A94G A96G C128U: 0.45; for A23U U103C U133C: 1.36; for A23U A66G A111G: 0.04. Then A24U A33G A51G A64G, with 0.4.

In the case of A24U A52G A89G A96G, the self-cleavage stood at 0.69. Then A23G U102C G106A U122C, with 0. The same measure for A24G A27G U38A: 1.29; for A24G A47G U70C A94G A116G: 1.68. Then A24U A47G A90G A110G, with 0.09; and U26A A114U U120A, with 0.04. On to A24G A51G A55G A135G, for which the self-cleavage came to 1.64. The same measure for A24C U57C A59G A89G: 1.26. As for A23U A55G A67G, the self-cleavage was found to be 2.06. The same measure for U26A A27G A64C: 1.07. Then A24G A69U A96G U120C, with 1.96; and A24U A92G U120C, with 0.46. The same measure for A23U A60G A67G A86G A110G: 0.12; for A23U A36G U49C A56G G73A A78U A118G: 0.1. In the case of A24G A52G A69G A98U A114G A118C, the self-cleavage is 0.37.

As for A24U A55G U70C A110G, the self-cleavage is 0.06. Then A24C A62U U100A C121U, with 1.49. As to A24G A78G A118G, the self-cleavage was 0.18. The same measure for A24G A66U A96G: 1.16. The same measure for A24U A33G U37C A64G A110G: 0.07. As to U26A A111G A129G, the self-cleavage came to 0.01. Then A24C U37C U43A C107A, with 0.04; and A24C U37C U122G, with 2.45.

For the origin of these results see the RNAGym collection of RNA variant scans (doi:10.7554/elife.90254).
